From the RNAGym collection of RNA variant scans (doi:10.7554/elife.90254)
The source gives no read counts; variants with many changes may rest on few reads.

B1: LINE1-mini (parent)
chain: GGCAGAGCUCAACACAGCGUGGCAAAGUGGCUGUGGCUAGACUGCC

Variants of: B1
Test: self-cleavage, relative activity (ratio to wild type); higher = more cleavage; in vitro, sequencing; the parent is a self-cleaving ribozyme

Variant | self-cleavage
A24U U38A U43A G44U | 0.02
G5U C13A A14G G35A | 0.08
A4G G36A U43C G44A | 0.09
G2U A4U C13G A14U U20A G30U | 0.1
A12U U20A A26G G27U | 0.03
G7A C15A G19C G44U | 0.21
G1C G5U U9C C23G A26G G27A A39U | 0.01
G7C A11U A16C A25C | 0.01
G5A U9G C15U | 0.08
C13A C15G G27U C31U G35A C45G C46G | 0.01
G17U A25U G30U C31G | 0.06
G2C A14G U28C A41U G44U | 0.03
C18G G27C G30U U43A | 0
C8A C15G G22C A39U | 0.04
G1A G22U G44A C46A | 0.11
G2A G21U C37G | 0.14
C8G U20A A25U | 0.16
A14C C18U G30A U34A A39G A41G | 0
C3A C10G C15U A39U | 0.02
C18G A26G A39G G44A | 0.05
G5A C15G C45U | 0.08
C3A G7C C18A | 0.01
G19C G21A A24U C37U | 0.01
A4U U20C A39C | 0.03

Variant | self-cleavage
C10U C13G G27U G36U C42A | 0.03
A16C G22A A25G U32G A39G | 0.02
C10A G19C G35U C37U | 0.01
G1A A4U C15U U34G G36A C46A | 0.07
C15G G19C G29A C45G | 0.01
G1C A26G U43G | 0.11
C3U A26G C42U | 0.09
G2U G29U G35U | 0.02
A14G G19U G35U U38C | 0.23
C3G A41U C45U | 0.45
C23G A41U C42U | 0.09
A6C G7A C8G G19A | 0.03
C13U U38A G44C | 0.07
C8A C10G G21U G33C G40A | 0.01
G17A A24U A39U A41G | 0.08
G1U A11U U20C G44A | 0.02
G1C C3A G5C G21A G33C U34C G40U A41C | 0.12
G2A G29C U32G C46A | 0.07
C3G A4U G5U C10G G40U | 0.02
A12U G22U U32A | 0.13
C18U A25C C45G | 0.02
C8G G22U G27A G40U | 0.02
G5A A16C U38C | 0.09
G2C C10A U20C U34C G36U | 0.02

Variant | self-cleavage
G2A A11G G35U | 0.03
G21C G33U C37G | 0.04
G22U G35A C37A | 0.33
G17A U34G A39G U43C | 0
U9C C10A C42G | 0.03
A11U A26C U32C G36U | 0.01
C15G G27C C46A | 0.04
G17U G22A A41U C46G | 0.02
G2U U9G A11C C15A A26U U43A | 0
A6G A12U C18A C23U | 0.08
G5C A12C C23U A26G G35C | 0.01
A4G G7A A14C G30U U34G | 0.15
C13G A26U U38C | 0.01
C3G C31G G36A | 0.4
G2A A6U A12U U20A A39C | 0.23
C13G G29U C31A C45U | 0.2
U9C C13A U28C G40A | 0.02
C13U C15G G27U | 0.03
C10A U20G G44U | 0.03
G5C U9A G40C | 0.41
G2U C10A C23G G27A A41U | 0.03
C13U C23G G27A | 0.06
C18U G19C U20A | 0.13
A11U G17A U28A C37U U43A | 0

Variant | self-cleavage
A25C U32A C42U | 0.03
G7U G21U U38G G40A | 0
A12U G22U G30U C46U | 0.35
C3G A16U G27U A41G | 0.07
A4U U28A G30C | 0.26
G2U G7C C31U C42G C45U | 0
C15A G22A G36C | 0.01
G7A A24G G29U | 0.03
A4C U9A C45G | 0.02
C13G A14C C23G G27A G33U C45G | 0.01
G21U G36C C42A | 0.07
C13U C15G G27U G33C G36C C45G | 0
A26C G36A C37G | 0
A12C U20G G22A | 0
C3A A11C G30U G35A G44C | 0.02
G1U A4C C23A | 0.04
A11G G17U C46A | 0.02
C3U G27A C31A | 0.26
A12G A14U C23U G29C | 0.01
G2C G22C A26C G33A | 0.04
G2U A16C C45A | 0.03
G7C C15A G17A G21U | 0.17
G5A A25G U34A G35C | 0.01
C3G A4C G7U U38C G44U | 0.2

Variant | self-cleavage
C15U A26U A41U | 0.73
G1U A4G C23G C31U U32G | 0.07
C3U A4G A11U G19U U34A | 0.02
C10U G33A G35U | 0.06
A12U C23A G40U C45G | 0.09
G1U C10G A12G C23G A39C U43C | 0
A11G C15A U38C G40A C46U | 0.01
C3A A6U G33U U38G | 0.19
G19A G33C U43C | 0.03
A11G G21A U28G | 0.01
A11U C13U U20A | 0.01
C10G G17U A24C A26C | 0.04
A11C G22U G35U C46A | 0
U20A U32G U38A | 0.07
C37A G40A A41C | 0.11
G7C A26G G29A G40U | 0.1
G22A A26G U28G | 0.17
C23G A25U U32C G33C | 0.01
A24U G40U C42A | 0.08
C15G G29U C31G G44U | 0.01
C15A G21U C23A C46U | 0.05
C10A A25U U32G G36U C45U | 0.01
A4G G21A C37U | 0.05
G2A A11G A14C C18G U34A U43C | 0.01

Variant | self-cleavage
U9A C31A G40U | 0
A14U U34G C37A C46G | 0
G2U A14C G19U A24U C46A | 0.01
C3A C13G G36C U38A G44A | 0.11
G2U A26C C42G | 0.02
G1U A24U C37A G40C | 0.05
G30U G33U G36C C45U | 0.11
C15G G17A G22A | 0.05
A6C G27C C42U | 0.07
G2A G22C G40U | 0.05
C8U A25U U28A G44U | 0.29
G17U U20A C23U G30U G36C | 0.07
C18U G19C G22C A26U G35U | 0.01
G1U A4U C8A C18G G40A C45U | 0.08
G7U U20G C37U | 0
A14C U20C C37G C45G | 0.02
A12C G17C G21U C23U | 0.01
C15A G17U U20A A39G C46U | 0.02
C13A G27C C46A | 0.12
A11G U28C C46A | 0
A11C A24G G35C | 0.02
G17U G22U A26G G33A G36C | 0.01
G19U G27C C42U U43A | 0.05
C10G A24C C31A A39G | 0

Variant | self-cleavage
G2C G17A G21U A26C G35C | 0.04
C13G U28C U34G | 0.02
G1C G5C A6G A39U C42U | 0.01
A6C A12C G19U G36U | 0.11
C3G A4C G5A A6G G7A C8A G40C | 0.16
G2U G19A G27C U38A | 0.04
C10U A12C A41G | 0.01
G19A G21U C37U G44U | 0.13
A6G A11U C13U | 0.02
U9G A24U U34A A39U G40A | 0
G22C G27A G33A A41C | 0.08
A4C C13U C42G | 0.08
C10A C13U A14C C15U G19C | 0.01
A6C G21A A25U G27C G35C G36U | 0
A4U A14U G22A A26C G27A | 0.02
C10A C15U G21C | 0.1
A12U C23A C31G U34C C45A | 0.01
G5A A26C G30C A39U G44U | 0.06
G19U G30C U34C G40C | 0.04
G1A A4U A6C C42A | 0.02
G19C G21A U32A | 0.19
G17C A25C G27U U34G | 0.04
A11U C37U A39C | 0
